Measured values as given in article PMC4336329 (PLoS ONE, 2015).
Screen size: about 310,000 compounds; about 14,000 (4.5%) showed an effect of 50% or more. The effect is printed as a negative number. This is one part of the list.

These compounds were tested against human ether-à-go-go-related gene (hERG) potassium channel (human, UniProt Q12809) (assay: primary screen, population patch clamp on CHO cells stably expressing hERG).
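Note: peak tail current of the secondary pulse compared with the same well before compound.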

human ether-à-go-go-related gene (hERG) potassium channel, sequence (Q12809 whole entry, looked up): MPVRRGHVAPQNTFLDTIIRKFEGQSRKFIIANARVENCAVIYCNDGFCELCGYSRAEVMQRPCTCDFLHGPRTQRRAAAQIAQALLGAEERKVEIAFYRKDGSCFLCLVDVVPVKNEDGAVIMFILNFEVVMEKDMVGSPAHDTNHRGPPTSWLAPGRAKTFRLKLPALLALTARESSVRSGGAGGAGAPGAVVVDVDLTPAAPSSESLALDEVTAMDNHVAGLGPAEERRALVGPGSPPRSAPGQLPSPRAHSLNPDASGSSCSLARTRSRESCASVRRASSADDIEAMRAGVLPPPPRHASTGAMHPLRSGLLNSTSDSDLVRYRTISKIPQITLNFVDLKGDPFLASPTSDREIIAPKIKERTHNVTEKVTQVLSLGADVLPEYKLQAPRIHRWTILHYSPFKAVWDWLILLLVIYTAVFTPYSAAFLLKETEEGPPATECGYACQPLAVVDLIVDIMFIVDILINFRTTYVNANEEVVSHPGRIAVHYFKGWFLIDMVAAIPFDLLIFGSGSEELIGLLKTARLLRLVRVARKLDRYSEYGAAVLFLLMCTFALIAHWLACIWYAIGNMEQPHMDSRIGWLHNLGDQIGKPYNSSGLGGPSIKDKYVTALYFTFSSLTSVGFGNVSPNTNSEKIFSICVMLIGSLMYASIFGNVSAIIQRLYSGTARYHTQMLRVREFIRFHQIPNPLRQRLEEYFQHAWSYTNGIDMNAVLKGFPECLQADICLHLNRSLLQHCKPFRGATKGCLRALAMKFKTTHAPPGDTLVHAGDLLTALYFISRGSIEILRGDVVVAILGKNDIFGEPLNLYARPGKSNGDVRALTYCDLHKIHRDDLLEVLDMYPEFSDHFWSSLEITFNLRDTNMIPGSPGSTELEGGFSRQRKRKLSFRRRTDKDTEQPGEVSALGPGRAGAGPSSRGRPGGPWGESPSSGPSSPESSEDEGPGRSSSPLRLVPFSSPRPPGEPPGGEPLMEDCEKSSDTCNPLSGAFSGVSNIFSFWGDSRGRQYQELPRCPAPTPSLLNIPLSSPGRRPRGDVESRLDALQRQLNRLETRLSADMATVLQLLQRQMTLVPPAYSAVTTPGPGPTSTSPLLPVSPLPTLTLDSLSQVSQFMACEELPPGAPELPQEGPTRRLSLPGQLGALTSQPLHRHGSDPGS

SMILES	hERG current change (%, negative = inhibition) at 10uM [%]
CCOc1ccc(S(=O)(=O)NCCCN2CCOCC2)cc1	5.84
CCN(CC)S(=O)(=O)c1cccc(NC(=O)COC(=O)c2cc(C)oc2C)c1	-18.3
COc1ccc(CNC(=O)CN(Cc2ccc(F)cc2)C(=O)CCC(=O)Nc2nccs2)cc1	-41.7
COc1cccc(CNc2ccc3c(c2)CCC3)c1	6.64
CCc1ccc(OCC(=O)N/N=C/c2ccc(OS(=O)(=O)c3ccc(C)cc3)c(OC)c2)cc1	22.4
O=C1CC(c2ccco2)CC2=C1C(c1ccccc1)n1nc(C(F)(F)F)nc1N2 (stereo not shown)	-3.36
CC[C@H](C)[C@@H](NC(=O)O[C@@H]1C(=O)c2cc(Br)ccc2O[C@H]1c1cccc(OC)c1)C(=O)OC	2.05
CC1CCN(S(=O)(=O)c2ccc(S(=O)(=O)NCC(=O)C(C)(C)C)cc2)CC1	5.25
COc1cc2c(cc1NC(=O)CN(C)Cc1cccc(OC)c1OC)oc1ccccc12	15.1
CCOC(=O)c1ccc(NS(=O)(=O)c2c(C)[nH]c(C)c2C(=O)N2CCCCC2)cc1	7.73
COc1ccccc1CCn1c(N)cc(=O)[nH]c1=O	18.4
C/C(=N\NC(=O)c1c(C)nc2ccccn12)c1ccc(N2CCOCC2)cc1	-7.51
Cc1nn(-c2ccc(F)cc2F)c(=O)c2noc(C)c12	14.5
CCN(C(=O)CCC(=O)N(CC)c1ccccc1)c1ccccc1	6.19
Cc1ccc(NC(=O)CN2C(=O)S/C(=C\c3cc(C)n(-c4cccc(C(=O)O)c4)c3C)C2=O)cc1	8.66
O=C(Nc1ccc(Cl)cc1C(F)(F)F)c1ccc(Cl)cc1	11.6
Cc1ccc(OCc2nc3ccccc3[nH]2)cc1	-9.02
NS(=O)(=O)c1ccc(CCNC(=O)CSc2nc3ccsc3c(=O)n2CCCCCC(=O)O)cc1	30.8
Cc1ccc(S(=O)(=O)N(CC(=O)N2CCCCCC2)c2ccccc2F)cc1	-19.4
COc1ccccc1NC(=O)C1CCCN1C(=O)NCc1ccccc1 (stereo not shown)	6.94
Cn1cc(CN2CCCC(C(=O)c3ccc(-c4ccccc4)c(F)c3)C2)cn1 (stereo not shown)	-55.4
Cc1ccc(C(=O)N2CC(=O)NC(=O)C2)cc1	-4.59

SMILES	hERG current change (%, negative = inhibition) at 10uM [%]
O=C(Nc1nc2c(c(=O)[nH]1)CCCC2)C1CC1	7.44
O=S(=O)(Nc1ccc(-c2nc3cccnc3s2)cc1)c1cc(F)ccc1F	7.54
CC(C)OC(=O)c1cccc(-c2ccc(C=O)o2)c1	3.87
CCN1C(=O)CC(N2CCN(CC(=O)NC(C)C)CC2)C1=O (stereo not shown)	14
Cc1ccc2nc(/C(C#N)=C\c3cc(O)ccc3[N+](=O)[O-])[nH]c2c1	38.4
Cc1cc(NC(=O)c2ccc3nc(-c4ccccc4)c(-c4ccccc4)nc3c2)no1	6.59
COc1ccc(C(=O)NCc2nnc(SCC(=O)N3CCCCCC3)o2)cc1OC	16.7
NNC(=S)Nc1cccc(Cl)c1	4.69
O=C(COC(=O)c1cc2ccccc2oc1=O)Nc1cccc(S(=O)(=O)N2CCCCCC2)c1	11.8
O=C(COC(=O)CCN1C(=O)/C(=C\C=C\c2ccccc2)SC1=S)Nc1cc(F)ccc1F	0.14
Cn1nnc2cc(C(=O)N3CCN(c4ccccn4)CC3)ccc21	4.53
CN(CC(=O)NCc1ccc2c(c1)OCO2)S(=O)(=O)c1ccc(Br)s1	-13.1
O=C(c1cc(COc2c(F)cccc2F)on1)N1CCC(c2ccncc2)CC1	-38.5
COC(=O)Nc1sc2c(c1C(N)=O)CCC(C)C2 (stereo not shown)	0.967
CCN(CC(=O)Nc1c(F)cccc1F)C(=O)CCCNC(=O)c1ccc(Cl)cc1	-7.06
O=C(CSc1ccc(-c2ccccc2)nn1)NCc1ccco1	-6.45
CCn1c(SCC(=O)NC2CC2)nnc1-c1ccccc1OC	12.5
Nc1nnc(CC(=O)NCc2ccccc2)s1	4.01
COc1ccc(-c2[nH]ncc2CN2CCSCC2)c(OC)c1	14.7
COc1cc(/C=N/NC(=O)c2ccoc2C)cc(OC)c1O	-5.45
N#C/C(=C\c1cn(Cc2ccc(F)cc2)c2ccccc12)C(=O)NCc1ccco1	9.05
COCC1CCN(C(=O)c2cc(COc3ccc4c(c3)CCCC4)on2)C1 (stereo not shown)	-24.9

SMILES	hERG current change (%, negative = inhibition) at 10uM [%]
Cc1cc(C(=S)N2CCOCC2)c(C)n1-c1ccc(Cl)cc1	-3.57
CCCCN(C(=O)C(C)Oc1ccc(Br)cc1)c1c(N)n(Cc2ccccc2)c(=O)[nH]c1=O (stereo not shown)	-19.5
Cc1ccc2cccc(SCC(=O)N3CCOCC3)c2n1	9.37
COc1ccc(C=C2C(=O)N(C)C(=O)N(C)C2=O)cc1CSc1ccccn1	-9.43
O=C(CNC(=O)c1ccccc1)OCc1cccc([N+](=O)[O-])c1	-12.7
COc1ccc(C(=O)/C=C/Nc2c(C)n(C)n(-c3ccccc3)c2=O)cc1OC	-12
C#CCNc1cc(-c2ccccc2)nc2ncnn12	-7.98
O=C(Nc1ccc(F)cc1)OC1CN2CCC1CC2 (stereo not shown)	-27.5
CCCNC(=O)CSc1n[nH]c(=O)n1CCc1ccccc1	39.8
Cc1ccc2occ(/C=C/C(=O)c3ccccc3O)c(=O)c2c1	-6.8
CCOc1cc(/C=N/OC(C)=O)ccc1OCc1ccccc1	2.83
CCC(CC)COC(=O)C1=C(C)NC(=O)NC1c1ccc(OC)cc1 (stereo not shown)	6.28
CN1C(=O)c2ccc(C(=O)Nc3ccc4c(c3)OCO4)cc2C1=O	14.1
Cc1ccc(-n2ncc3c(=O)n(CC(=O)N4CCN(c5ccccc5)CC4)cnc32)cc1	-6.01
CCCCN(C)C(=O)C1CCN(Cc2ccc(OCc3ccccc3)cc2)CC1.O=C(O)C(=O)O	-73.4
N#Cc1cccc(NC(=O)COC(=O)C2CCC2)c1	23.2
CCOC(CCn1ccc(O)c(Cc2ccc(Cl)cc2)c1=O)OCC	8.78
Nc1nonc1-n1nnc(C(=O)N/N=C/c2cccnc2)c1CSC1=NCCS1	3.21
COc1cccc(C(=O)Nc2cnc(NC(=O)c3ccco3)cc2C)c1	-14.3
O=S(=O)(Nc1cccnc1)c1cccc(Cl)c1	-6.62
C[C@]1(C(=O)NCCCNc2ncc(C(F)(F)F)cc2Cl)C=C[C@@H](Cc2ccccc2)N1C(=O)c1ccccc1	7.01
COc1cccc2c1O/C(=N\O)C(C(=O)Nc1cccc(C)c1C)C2 (stereo not shown)	9.04

SMILES	hERG current change (%, negative = inhibition) at 10uM [%]
O=C(Nc1cccnc1)c1ccc(Cl)c(Cl)c1	10.3
O=C(CSc1nnc(CNC(=O)c2cccs2)o1)c1ccc(Cl)cc1	-17.5
O=C(O)CSc1nnc(-c2ccncc2)n1Cc1ccccc1	10.3
CCCOc1ccc(C(=O)NCc2ccco2)cc1	8.99
COc1ccccc1Cn1c(=O)[nH]c2cccnc21	11.2
Cc1c(NC(=O)CN(c2ccc(F)cc2)S(=O)(=O)c2ccccc2)c(=O)n(-c2ccccc2)n1C	-0.664
NCCc1ccc(S(N)(=O)=O)cc1	18.3
O=C(CCN1CCN(C(c2ccccc2)c2ccccc2)CC1)N/N=C/c1ccc(O)cc1O	-53.1
O=C(O)C1CCCCC1C(=O)NC1CCCCC1 (stereo not shown)	1.54
O=C(Nc1cccc(C(=O)O)c1)/C(=C\c1ccco1)NC(=O)c1ccccc1Cl	7.53
O=C(Cc1ccc(F)cc1)Nc1nnc(SCC(=O)NC2CCCC2)s1	1.56
Cc1ccc(-c2[nH]c3ccccc3c2SCCNC(=O)c2ccc(S(=O)(=O)N3CCOCC3)cc2)cc1	19.2
COc1ccc(C(CNC(=O)COc2ccccc2C)N2CCCC2)cc1 (stereo not shown)	-40.8
Cc1cc(=O)oc2cc(OCC(=O)OCC(=O)NC(C)C)ccc12	11.2
COc1ccc(OCC(O)CNC(=O)Nc2cccc3ccccc23)cc1 (stereo not shown)	7.58
Cc1ccc(NN=C2C(=O)OC(C)(C)OC2=O)c(C)c1	5.02
COc1ccc(OC)c(N/C(=N/C(=S)Nc2ccccc2)Nc2nc(C)cc(C)n2)c1	8.65
CCN(CC)CCNC(=O)c1cc(-c2ccco2)nc2ccccc12.Cl	-65.5
Cc1cc(=O)[nH]c(SCc2cc(Cl)ccc2OC(F)F)n1	11.2
CC1CCCC(NC(=O)CSc2ccc(F)cc2)C1C (stereo not shown)	18.7
CCN(CC1COc2ccccc2O1)C(=S)NCCCN(C)C (stereo not shown)	-37.6
COc1cc(NC(=O)c2ccccc2F)ccc1NC(=O)c1ccccc1Cl	0.592
